In all, about 340,000 compounds went through this assay and about 6,900 (2%) were called active. Rule as the data show it: active = inhibition above about 30%; inactive = below that, where a call was filed. This is a selection; strong and weak results do not stand in their true shares. Entries without a call were filed so in the source.
The compounds below were run against D(2) dopamine receptor (Homo sapiens) (UniProt P14416) (assay: HTS Assay for Allosteric Antagonists of the Human D2 Dopamine Receptor: Primary Screen for Antagonists). Settings: HEK293 TREx D2 cells, calcium flux, dopamine EC80; at 10 µM; stronger effect = higher value.
Chain of UniProt P14416 (P14416 whole entry, looked up): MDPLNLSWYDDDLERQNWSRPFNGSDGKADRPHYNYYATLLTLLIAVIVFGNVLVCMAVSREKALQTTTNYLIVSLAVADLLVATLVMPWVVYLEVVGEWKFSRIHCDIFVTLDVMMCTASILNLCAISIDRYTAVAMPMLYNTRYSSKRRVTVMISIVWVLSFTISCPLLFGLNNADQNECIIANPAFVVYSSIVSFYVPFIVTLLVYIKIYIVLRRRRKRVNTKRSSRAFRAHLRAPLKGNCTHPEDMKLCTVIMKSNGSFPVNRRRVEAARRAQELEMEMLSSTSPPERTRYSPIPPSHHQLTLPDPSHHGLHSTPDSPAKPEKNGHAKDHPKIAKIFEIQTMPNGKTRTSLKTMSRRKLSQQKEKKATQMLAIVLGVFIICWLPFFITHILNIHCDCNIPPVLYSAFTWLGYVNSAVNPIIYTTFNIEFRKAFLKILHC
Summary of the method: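 In this primary screen, negative modulation is detected by tracking calcium flux after an EC80 dopamine challenge in inducible HEK293 T-REx D2 cells preexposed to test compound for 180 s.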
Also: 0% is about no effect.

SMILES | inhibition
Cc1cccc(N2CCN(S(=O)(=O)c3cn(C)c(C)n3)CC2)c1C | 3.26%
O=C(NCC1COc2ccccc2O1)c1ccc(Cl)c(S(=O)(=O)N2CCOCC2)c1 (centres undefined) | active: 30.6%
CCOc1ccccc1C(=O)Oc1c(S(=O)(=O)c2ccc(C)cc2)c(C)nn1-c1ccccc1 | -4.38%
CCCCN(C)CCCNC(=O)Cn1ncc2c3ccccc3n(Cc3cccc(Cl)c3)c2c1=O | 1.24%
COc1ccc(NCc2cc3cc4c(cc3n(CC(=O)Nc3cccc(F)c3)c2=O)OCO4)cc1 | 3.14%
O=C(Cn1c(=O)n(-c2ccccc2)c(=O)c2ccc(C(=O)NCc3ccc4c(c3)OCO4)cc21)Nc1ccc(F)cc1 | 3.06%
Clc1ccccc1N1CCN(Cc2nnc(-c3ccccc3)o2)CC1 | 13.6%
CCc1cccc(NC(=O)Cn2c(=O)n(-c3ccccc3C)c(=O)c3c2c2cc(C)ccc2n3C)c1 | -9.25%
COc1cc(OC)c(NC(=O)Cn2c(=O)c(C(F)(F)F)nc3ccccc32)cc1Cl | 1.05%
Cc1ccc(Cl)cc1-n1c(CCC(=O)O)ccc1-c1cccs1 | 0.0749%
Cc1ccc(-n2nc(C(=O)N3CCN(c4ccc(F)cc4)CC3)c(=O)n(C)c2=O)cc1 | 21.8%
OC(COc1cccc2ccccc12)CN1CCN(c2ccccn2)CC1 (centres undefined) | active: 75.1%
COc1ccc2nc(NC(=O)c3nc(S(=O)(=O)Cc4ccccc4F)ncc3Cl)sc2c1 | -2.59%
Cn1cnc(S(=O)(=O)N2CCC(C(=O)Nc3ccc(F)cc3F)CC2)c1 | -21.5%
CCOCCc1nnc(NC(=O)C(=O)c2cc(C)n(-c3cccc(C)c3)c2C)s1 | 16.2%
Cc1ccc(-c2noc(CNC(=O)COc3cc(C)c(Br)c(C)c3)n2)cc1 | -19.7%
CCN(CC)C(=O)C1=C(C)NC(=S)NC1c1cccs1 (centres undefined) | active: 30.7%
O=C(NC1CCCCC1)c1ccc2c(c1)N(Cc1cccc(F)c1)C(=O)c1ccccc1S2 | 11.9%
O=C(NC1CCCCC1)c1ccc2c(c1)sc1nc(-c3ccc(F)cc3)cn12 | 8.62%
CN(C1CCCCC1)S(=O)(=O)c1cccc2nsnc12 | active: 31.6%
Cc1ccc(Nc2cc(C)nc(-n3nc(C)cc3C)n2)cc1 | 16%
O=C(Nc1ccc(OC(F)(F)F)cc1)C1CCN(S(=O)(=O)c2ccc3[nH]c(=O)ccc3c2)CC1 | -2.8%
Cc1ccc(NC(=O)CSc2nc3ccc(Br)cc3[nH]2)c(C)c1 | 20%
Cc1ccc(N2CC(C(=O)NCCS(=O)(=O)N3CCN(c4ccccc4F)CC3)CC2=O)cc1 (centres undefined) | -10.9%

SMILES | inhibition
CC1CCN(C(=O)CSc2c3c(nc4ccc(Cl)cc24)CCCC3)CC1 | -0.455%
CC1=C(c2ccc(C(C)C)cc2)S(=O)(=O)NC1=NCc1ccccc1C | 5.53%
Cc1cccc(NC(=O)CSc2nc3ccccc3nc2N2CCC(C)CC2)c1 | 11%
CCOc1ccc(N(Cc2ccccc2)C(=O)c2nc(SCC)ncc2Cl)cc1 | -7.32%
Cc1nc2c3ccccc3nc(NNC(=O)CCC(=O)N3CCN(c4cccc(Cl)c4)CC3)n2n1 | 2.45%
O=C(COc1ccc(F)cc1)Nc1nnc(S(=O)(=O)N2CCc3ccccc32)s1 | -1.32%
COc1ccc(S(=O)(=O)N(CC(=O)Nc2ccc(F)c(Cl)c2)c2ccc(C)cc2)cc1OC | -14.6%
Cc1ccc(NC(=O)Cn2c(=O)n(CC3CCC(C(=O)NC(C)C)CC3)c(=O)c3sccc32)cc1 (centres undefined) | -1.22%
COc1ccc(-c2nc(C)c(CCNC(=O)C(=O)Nc3ccccc3F)s2)cc1 | 12.9%
COc1ccccc1-n1nc(-c2ccccc2)c2cnc3c(F)cc(F)cc3c21 | 24.6%
COc1ccc(C(CNC(=O)COc2cc(C)cc(C)c2)N2CCCCC2)cc1 (centres undefined) | -20.8%
COc1ccc(CCN2CCC(CNC(=O)c3cnn(-c4ccc(C)cc4)c3C3CCN(C(=O)OC(C)(C)C)CC3)CC2)cc1 | 7.98%
COc1cc(C(=O)N2CCN(CCc3ccncc3)CC2)cc(OC)c1OC | 10.4%
COc1cccc(-n2c(=O)c3c(C)c(C(=O)N(C)C)sc3n(Cc3cccc(C)c3)c2=O)c1 | 3.71%
Cc1cccc(N(C)S(=O)(=O)c2ccc(-c3cc(C)no3)s2)c1 | -19.8%
CCc1sc(Nc2cccc(C)c2)nc1-c1cc2cccc(OC)c2oc1=O | -13.9%
CC(=O)N1CCc2c(sc3c2c(=O)n(-c2ccc(F)cc2)c(=O)n3Cc2cc(C)ccc2C)C1 | -6.33%
Cc1ccc(S(=O)(=O)N2CCc3cc(C(=O)N(C)Cc4ccccc4)ccc32)cc1 | 26%
COc1ccc(-c2noc(-c3ccc(N4CCN(C)CC4)c([N+](=O)[O-])c3)n2)cc1 | 6.68%
COc1ccc(S(=O)(=O)c2c(O)c(C)cc(NS(=O)(=O)c3ccc(Cl)cc3)c2C(C)C)cc1 | 10%
COc1ccc(C2CC(=O)N(Cc3ccccc3C)c3c2c(C)nn3-c2nc(C)cc(C)n2)c(OC)c1 (centres undefined) | 12%
COc1ccc(NC(=O)CSC2=Nc3ccccc3C3=NC(CC(=O)NCc4ccccc4OC)C(=O)N23)cc1Cl (centres undefined) | -6.67%
Cc1ccccc1-n1c(SCC(=O)Nc2ccc(Cl)cc2Cl)nc(O)cc1=O | 16.2%
CC(C)(C)c1ccc(-c2nc(SCCOc3ccc(Cl)cc3)n3[nH]c(=O)cc3n2)cc1 | -1.76%

SMILES | inhibition
O=C(CSc1ncc2c(n1)-c1cc(Cl)ccc1N(Cc1ccccc1)S2(=O)=O)Nc1ccc(F)cc1F | 0.176%
O=C(CCSCc1cccc(Cl)c1)NCc1ccccc1Cl | -5.67%
O=c1c(N2CCN(c3ccccc3)CC2)csc2ccc(Cl)cc12 | 3.55%
CC(C)Oc1ccc(C(=O)N2CCN(c3nc4c(F)cc(F)cc4s3)CC2)cc1 | -9.59%
CCN1c2ccccc2-n2cccc2C12CCN(C(=O)Nc1ccccc1Br)CC2 | -8.66%
CC1CCCN(c2ncnc3c2cnn3-c2ccc(F)cc2)C1 (centres undefined) | -6.08%
CCCCn1cc(S(=O)(=O)c2ccccc2)c(=O)c2cc(F)c(N3CCN(CCC)CC3)cc21 | 0.621%
CCOCCn1ccc2c(OCC(=O)NCc3ccc(F)cc3)cccc2c1=O | 4.11%
Cc1cc(C)cc(NC(=O)N2CCC(C(N)=O)(N3CCCCC3)CC2)c1 | -4.4%
COc1ccc(N(C)C(=O)c2nn(-c3ccc(C)cc3)c(=O)n(C)c2=O)c(OC)c1 | -15.3%
CCOC(=O)N1CCC(NC(=O)c2cnn(-c3ccc(F)cc3)c2-n2cccc2)CC1 | -8.03%
COc1ccc(N2CC(NC(=O)C(=O)c3c[nH]c4ccccc34)CC2=O)cc1 (centres undefined) | 3.9%
CCN(CC)c1cc(C)c2cc(NC(=O)/C=C/c3ccccc3Cl)ccc2n1 | -3.49%
COc1ccc(CNC(=O)CC(C)n2nc(C)cc2C)cc1 (centres undefined) | 3.58%
Cc1ccc(-c2nn(-c3ccc(F)cc3F)c3c2cnc2ccc(F)cc23)cc1 | -26.8%
CCOc1cc2[nH]c(=O)n(Cc3ccc(C(=O)N4CCN(c5ccccc5)CC4)cc3)c(=O)c2cc1OCC | 6.03%
COc1cc2c(=O)n(Cc3ccco3)c(=O)n(CC(=O)Nc3ccc(F)cc3)c2cc1OC | -19.3%
CSc1ncc(Cl)c(C(=O)Nc2cc(C(F)(F)F)ccc2Cl)n1 | -1.99%
Cc1nc(-c2ccc(Cl)cc2)sc1CCNC(=O)C(=O)Nc1ccc2c(c1)OCCO2 | -23.2%
O=C(O)c1ccc(NCc2nc3ccccc3n2CCOc2ccccc2Cl)cc1 | -15.4%
O=C(CSc1nc(=O)n(Cc2cccnc2)c2c1CCC2)Nc1cccc(Cl)c1 | -10.4%
CCc1cc(C(=O)OC)c(NC(=O)CC2SC(=NC)N(C)C2=O)s1 (centres undefined) | active: 63.4%
COCCn1c(=O)[nH]c2cc(C(=O)N3CCN(c4ccc(Cl)cc4)CC3)ccc2c1=O | -4.84%
CN(c1ccccc1C(=O)Nc1cccc(Cl)c1Cl)S(C)(=O)=O | active: 53.3%

SMILES | inhibition
Cc1ccc(CN2CCC(CNC(=O)c3cnn(-c4ccccc4)c3C3CCN(C(=O)OC(C)(C)C)CC3)CC2)cc1 | 0.611%
COc1ccc(NC(=O)c2cc(C(C)=O)n3ccccc23)cc1 | 1.07%
COc1ccc(NC(=O)c2oc3ccc(S(=O)(=O)N4CCCCC4)cc3c2C)cc1Cl | 15.6%
CN1CCN(c2nc(-c3ccccc3)cc(C(F)(F)F)n2)CC1 | active: 75.4%
COc1ccccc1NC(=O)CSc1nnc(-c2nonc2NC(C)=O)n1-c1ccccc1 | 13%
CCc1ccc(NC(=O)Cn2c(=O)n(Cc3nc(C)no3)c(=O)c3cc4c(cc32)OCO4)cc1 | 0.208%
Cc1ccc(CNc2nc3c(S(=O)(=O)c4ccc(C)c(C)c4)nnn3c3ccc(Cl)cc23)cc1 | 6.03%
O=C(CN1CCN(c2ccc(Cl)cc2)CC1)Nc1ccc(Cl)c(C(F)(F)F)c1 | 13.6%
Cc1ccc(CSc2oc(-c3ccco3)nc2S(=O)(=O)c2ccc(Br)cc2)cc1 | -16.6%
Cc1ccc(CNC(=O)CCn2ccc3cc(S(=O)(=O)N4CCCC4)ccc32)cc1 | 4.35%
Cc1ccccc1-n1ncc(C(C)NC(=O)c2ccccc2)c1C (centres undefined) | active: 36.3%
Cc1ccc(C)c(N2CCN(C(=O)c3cc4cc5ccc(C)cc5nc4s3)CC2)c1 | 8.99%
CCOCCCNC(=O)c1cc2c(=O)n3ccccc3nc2s1 | -13.8%
COc1cc(C(=O)NC2CCN(Cc3ccccc3)CC2)cc(Cl)c1OC | active: 88.9%
O=C(/C=C\c1ccc2c(c1)OCO2)NC1CC(=O)N(c2ccc(F)cc2)C1 (centres undefined) | -5.22%
CCOC(=O)c1ccc(NC(=O)CCc2c(C)n(CC)c3cc(-c4ccccc4OC)nn3c2=O)cc1 | -8.62%
CCc1cccc(-n2c(=O)c3cccnc3n2CC(=O)NCc2ccccc2Cl)c1 | 2.34%
CCOC(=O)c1[nH]c(C)c(CCC(=O)NCc2ccc(C)cc2)c1C | -5.2%
COc1ccccc1Nc1nn2c(=O)c3ccc(C(=O)Nc4ccc(F)cc4)cc3nc2s1 | 12.8%
NC(=O)c1cc(S(=O)(=O)NCc2ccc(Br)cc2)cs1 | 10.2%
CCOc1ccc2oc(=O)cc(CN3CCN(C(=O)c4cccc(F)c4)CC3)c2c1 | 1.4%
CCCN(CCC)CCNC(=O)Cn1ncc2c([nH]c3ccc(C)cc32)c1=O | 4.67%
